Source: paper PMC12820563, “FoxP3 forms a head-to-head dimer in vivo and stabilizes its multimerization on adjacent microsatellites”
The other results are listed elsewhere or left out.

target: T1, MBP-FoxP1dN (Mus musculus, UniProt P58462 326-579); experiment: PD-seq (MBP pull-down with sequencing); 20 mM Tris-HCl pH 7.5, 100 mM NaCl, 1.5 mM MgCl2, 0.4 uM protein, 0.1 uM dsDNA library, 30 min, room temperature, amylose pull-down; high values mean tight binding; settings: protein: recombinant; tags: His6-MBP; chain copies: 2; dsDNA, one strand shown
T1 sequence: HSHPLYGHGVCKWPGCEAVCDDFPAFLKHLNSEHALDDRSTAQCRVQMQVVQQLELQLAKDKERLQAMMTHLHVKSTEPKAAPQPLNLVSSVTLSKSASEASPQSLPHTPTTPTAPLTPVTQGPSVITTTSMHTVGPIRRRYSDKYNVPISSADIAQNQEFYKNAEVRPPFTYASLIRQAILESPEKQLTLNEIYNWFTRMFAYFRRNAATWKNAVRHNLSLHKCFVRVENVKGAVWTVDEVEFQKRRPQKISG
Procedure, shortened: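 Amylose resin was used to capture complexes formed during 30 min at room temperature in Tris pH 7.5 buffer with NaCl and MgCl2 between 0.4 µM His6-MBP-tagged mouse FoxP3 or FoxP1 fragment lacking the N-terminus, expressed in E. coli, and 0.1 µM Klenow-filled double-stranded degenerate DNA library. After three washes, the DNA was released with proteinase K, barcoded by PCR and sequenced on Illumina. Binding is pooled-replicate reads-per-million enrichment, pull-down over input.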

Row | Sequence | binding signal
1 | GATGATTGTTCTCCCAGCTGATGAATTACCATCTTCGAGTAAACAAATTTTCCTAATCTTTCTGTTCAAGCGCCATCTAC | 1.02 RPM ratio (pull-down/input)
2 | GATGATTGTTCTCCCAGCTGATGAATTTCGGGTATCGAGTAAACAAATTTTCCTAATCTTTCTGTTCAAGCGCCATCTAC | 0.828 RPM ratio (pull-down/input)
3 | GATGATTGTTCTCCCAGCTGATGAATTTCCAGCTTCGAGTAAACAAATTTTCCTAATCTTTCTGTTCAAGCGCCATCTAC | 0.823 RPM ratio (pull-down/input)
4 | GATGATTGTTCTCCCAGCTGATGAATTGCACAGATCGAGTAAACAAATTTTCCTAATCTTTCTGTTCAAGCGCCATCTAC | 1.2 RPM ratio (pull-down/input)
5 | GATGATTGTTCTCCCAGCTGATGAATTGGCGTGCTCGAGTAAACAAATTTTCCTAATCTTTCTGTTCAAGCGCCATCTAC | 0.881 RPM ratio (pull-down/input)
6 | GATGATTGTTCTCCCAGCTGATGAATTGTTATCATCGAGTAAACAAATTTTCCTAATCTTTCTGTTCAAGCGCCATCTAC | 1.73 RPM ratio (pull-down/input)
7 | GATGATTGTTCTCCCAGCTGATGAATTGACTTGCTCGAGTAAACAAATTTTCCTAATCTTTCTGTTCAAGCGCCATCTAC | 0.975 RPM ratio (pull-down/input)
8 | GATGATTGTTCTCCCAGCTGATGAATTACGATCTTCGAGTAAACAAATTTTCCTAATCTTTCTGTTCAAGCGCCATCTAC | 1.08 RPM ratio (pull-down/input)
9 | GATGATTGTTCTCCCAGCTGATGAATTCCTATCCTCGAGTAAACAAATTTTCCTAATCTTTCTGTTCAAGCGCCATCTAC | 0.762 RPM ratio (pull-down/input)
10 | GATGATTGTTCTCCCAGCTGATGAATTATCATCATCGAGTAAACAAATTTTCCTAATCTTTCTGTTCAAGCGCCATCTAC | 1.12 RPM ratio (pull-down/input)
11 | GATGATTGTTCTCCCAGCTGATGAATTATGGTGTTCGAGTAAACAAATTTTCCTAATCTTTCTGTTCAAGCGCCATCTAC | 1.11 RPM ratio (pull-down/input)
12 | GATGATTGTTCTCCCAGCTGATGAATTCGTGGCTTCGAGTAAACAAATTTTCCTAATCTTTCTGTTCAAGCGCCATCTAC | 0.863 RPM ratio (pull-down/input)
13 | GATGATTGTTCTCCCAGCTGATGAATTCTATAGTTCGAGTAAACAAATTTTCCTAATCTTTCTGTTCAAGCGCCATCTAC | 0.911 RPM ratio (pull-down/input)
14 | GATGATTGTTCTCCCAGCTGATGAATTTGGGCTGTCGAGTAAACAAATTTTCCTAATCTTTCTGTTCAAGCGCCATCTAC | 0.854 RPM ratio (pull-down/input)
15 | GATGATTGTTCTCCCAGCTGATGAATTAATGTAGTCGAGTAAACAAATTTTCCTAATCTTTCTGTTCAAGCGCCATCTAC | 1.24 RPM ratio (pull-down/input)
16 | GATGATTGTTCTCCCAGCTGATGAATTAAAGGCGTCGAGTAAACAAATTTTCCTAATCTTTCTGTTCAAGCGCCATCTAC | 1.03 RPM ratio (pull-down/input)

Row | Sequence | binding signal
17 | GATGATTGTTCTCCCAGCTGATGAATTAGCAAGTTCGAGTAAACAAATTTTCCTAATCTTTCTGTTCAAGCGCCATCTAC | 0.864 RPM ratio (pull-down/input)
18 | GATGATTGTTCTCCCAGCTGATGAATTGAAGGGCTCGAGTAAACAAATTTTCCTAATCTTTCTGTTCAAGCGCCATCTAC | 0.795 RPM ratio (pull-down/input)
19 | GATGATTGTTCTCCCAGCTGATGAATTAAGACACTCGAGTAAACAAATTTTCCTAATCTTTCTGTTCAAGCGCCATCTAC | 0.953 RPM ratio (pull-down/input)
20 | GATGATTGTTCTCCCAGCTGATGAATTCTGGGTTTCGAGTAAACAAATTTTCCTAATCTTTCTGTTCAAGCGCCATCTAC | 0.808 RPM ratio (pull-down/input)
21 | GATGATTGTTCTCCCAGCTGATGAATTGTCTGACTCGAGTAAACAAATTTTCCTAATCTTTCTGTTCAAGCGCCATCTAC | 0.905 RPM ratio (pull-down/input)
22 | GATGATTGTTCTCCCAGCTGATGAATTAACAAATTCGAGTAAACAAATTTTCCTAATCTTTCTGTTCAAGCGCCATCTAC | 1.43 RPM ratio (pull-down/input)
23 | GATGATTGTTCTCCCAGCTGATGAATTTACGGCATCGAGTAAACAAATTTTCCTAATCTTTCTGTTCAAGCGCCATCTAC | 1.21 RPM ratio (pull-down/input)
24 | GATGATTGTTCTCCCAGCTGATGAATTTCAGCGCTCGAGTAAACAAATTTTCCTAATCTTTCTGTTCAAGCGCCATCTAC | 0.803 RPM ratio (pull-down/input)
25 | GATGATTGTTCTCCCAGCTGATGAATTAGAGTCTTCGAGTAAACAAATTTTCCTAATCTTTCTGTTCAAGCGCCATCTAC | 0.899 RPM ratio (pull-down/input)
26 | GATGATTGTTCTCCCAGCTGATGAATTAAAGGTGTCGAGTAAACAAATTTTCCTAATCTTTCTGTTCAAGCGCCATCTAC | 0.842 RPM ratio (pull-down/input)
27 | GATGATTGTTCTCCCAGCTGATGAATTCTGCACCTCGAGTAAACAAATTTTCCTAATCTTTCTGTTCAAGCGCCATCTAC | 0.768 RPM ratio (pull-down/input)
28 | GATGATTGTTCTCCCAGCTGATGAATTGCCACAATCGAGTAAACAAATTTTCCTAATCTTTCTGTTCAAGCGCCATCTAC | 1.47 RPM ratio (pull-down/input)
29 | GATGATTGTTCTCCCAGCTGATGAATTCCAGGCCTCGAGTAAACAAATTTTCCTAATCTTTCTGTTCAAGCGCCATCTAC | 0.783 RPM ratio (pull-down/input)
30 | GATGATTGTTCTCCCAGCTGATGAATTCACTGGGTCGAGTAAACAAATTTTCCTAATCTTTCTGTTCAAGCGCCATCTAC | 0.782 RPM ratio (pull-down/input)
31 | GATGATTGTTCTCCCAGCTGATGAATTGGGCTGCTCGAGTAAACAAATTTTCCTAATCTTTCTGTTCAAGCGCCATCTAC | 0.761 RPM ratio (pull-down/input)
32 | GATGATTGTTCTCCCAGCTGATGAATTACGTCTTTCGAGTAAACAAATTTTCCTAATCTTTCTGTTCAAGCGCCATCTAC | 1.1 RPM ratio (pull-down/input)
